# Over roughly 33,000 sequences, “E-score (-0.5 to 0.5)” has its median near -0.04; the highest 2% begin near 0.36. The list shows a part of the results.
# Molecular target: T1, Hmlalpha2 (UniProt P0CY09)
# T1 sequence: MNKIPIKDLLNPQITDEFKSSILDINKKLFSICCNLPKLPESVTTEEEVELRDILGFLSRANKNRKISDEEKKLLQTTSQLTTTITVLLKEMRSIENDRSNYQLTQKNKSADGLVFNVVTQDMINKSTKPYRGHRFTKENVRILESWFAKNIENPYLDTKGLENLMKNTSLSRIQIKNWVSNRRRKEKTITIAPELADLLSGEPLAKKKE
# Test: PBM E-score (8-mer binding enrichment) (E-score (-0.5 to 0.5)); higher = stronger / more preferred TF binding; most listed sequences are background and not binding sites
# Conditions: protein concentration: 200 nM; construct: GST-full length
# Description: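 Universal 'all 10-mer' protein binding microarrays (Agilent AMADID 015681) probed with GST-tagged S. cerevisiae TFs (full-length or DBD) made by in vitro transcription/translation (PURExpress), about 100-200 nM. Bound TF was detected with fluorescent anti-GST. Each ungapped 8-mer (which stands for itself and its reverse complement) is scored by the PBM enrichment score (E-score), a modified Wilcoxon-Mann-Whitney statistic from -0.5 to +0.5, computed with the Universal PBM Analysis Suite. Scale: above 0.35 generally sequence-specific binding.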
row,Sequence,PBM E-score
1,GAAGGCCA,-0.38
2,AATAACAA,0.267
3,CACTACTG,-0.177
4,CGATAAGA,0.00859
5,ATAATTGC,0.121
6,CAACGTAA,0.29
7,CGTCTGAG,-0.0744
8,GGTGGCAA,-0.19
9,AGAGTTGG,-0.131
10,CAAGGTAC,0.104
11,CATGTCTC,0.117
12,CGTTCATC,0.0714
13,ATACGTAC,0.242
14,AAGAAGTG,0.0961
15,ATTACAGA,0.333
16,CCAAATTC,-0.06
17,AGGGGACA,-0.0998
18,CCCTGGAG,-0.324
19,ATTGTAGG,0.23
20,CTATATTA,0.25
21,CCCATAGC,-0.283
22,ATGACCCA,0.0186
23,CCTACCTC,-0.361
24,CCCCCGTA,-0.247
25,GTCGGGAA,0.00521

row,Sequence,PBM E-score
1,CGGGCAAG,-0.192
2,TACTTCAA,0.111
3,CTACTGAA,-0.00131
4,CCATATTA,0.063
5,TCCATGGA,0.076
6,GAGATAGA,-0.0968
7,GGCCTCTA,-0.171
8,TAGTGTAA,0.323
9,ATCAAGTG,-0.0416
10,AAATGCAC,-0.0775
11,TATGCCCA,-0.227
12,CCCATGTA,0.447
13,CGCGAGAC,0.113
14,AGGCATGC,0.0654
15,AAACCCGA,0.0002
16,ACCTGCTG,0.0134
17,AAGGAAGA,-0.203
18,AGGAGTTC,-0.145
19,AACTTCAG,-0.148
20,GGTTGAAA,-0.0197
21,AAGTGTAC,0.0982
22,CGCAAACC,0.0302
23,GTGATTGA,0.229
24,CCTCTAAG,-0.255
25,CTGGCCTC,-0.334

row,Sequence,PBM E-score
1,GGGCGTAA,0.0836
2,ACTCGACT,0.0143
3,AGGCAGAC,-0.231
4,GACTTCTA,-0.0698
5,ACGGTGGA,-0.0685
6,GAGCCCAC,-0.304
7,CCTGAACA,0.152
8,AGTGAAAT,0.0119
9,CCTAAGTC,-0.403
10,CGGGGGAC,-0.388
11,AATCTCCA,0.042
12,CAAAGTAG,-0.0513
13,ACTATAGG,-0.131
14,AGCTTATA,0.0751
15,ACTTCACC,-0.0828
16,CCCTGAGC,-0.282
17,ACCATCAG,-0.154
18,CATTGGAA,0.0982
19,TCGCAAAA,0.0537
20,GGCGATAC,-0.127
21,TCGCTCAA,-0.0107
22,TCGCGACA,-0.138
23,CTTACCGA,-0.129
24,CCAGGGGA,-0.291
25,AAGCATGA,0.0153

row,Sequence,PBM E-score
1,AATGATGA,0.0124
2,CTGGGATA,-0.181
3,AGAATTTA,0.203
4,TCGTTTAA,0.293
5,ATATATAG,0.126
6,AGCCACCA,-0.167
7,ACGTATGC,0.0963
8,TCTAATAA,0.182
9,ATTGAGGA,-0.0755
10,AAGGGTGG,-0.3
11,ACACAGTG,0.315
12,TAAGAACA,0.355
13,GTTCTTTA,0.197
14,GATCAACC,-0.154
15,ATTCATGC,-0.00549
16,GTTCGCTA,0.0191
17,AGCAACGA,-0.017
18,ACCCTGAA,-0.0447
19,GATACGCA,0.144
20,GAGCAGGA,0.0487
21,GGCAAGAA,0.0427
22,GGGGCACA,-0.167
23,ATAGGGAC,-0.235
24,GCGTTGCA,0.0313
25,AAAGCCTG,-0.167

row,Sequence,PBM E-score
1,TAGGCCTA,0.0969
2,GCCTCGAA,-0.109
3,ACTGGAGG,-0.298
4,GCCGCGCC,-0.129
5,GCTACCAA,0.00589
6,AGATAGTG,0.0358
7,CTGAATTC,0.0173
8,CCTAGAAG,-0.255
9,ACTCTGGA,-0.0614
10,AGGCTTCA,-0.223
11,ATGTTCCA,0.12
12,GCCAAGCC,-0.309
13,CCACCACG,-0.118
14,AACCTCAC,-0.102
15,CCAGTCTC,-0.203
16,ACGGATTA,0.121
17,AATGTGAA,0.235
18,TCGTACCA,-0.156
19,ACTGCGCT,-0.0871
20,CTAAACCA,-0.0151
21,ATATCATC,0.0385
22,AGCTAACT,-0.049
23,ACAGTATC,0.152
24,CAAGATTC,-0.0343
25,ATATATGC,-0.0235

row,Sequence,PBM E-score
1,AGATAGAC,0.0844
2,GAATCAGA,-0.0847
3,CTGCTTGA,-0.0539
4,ACGCTTGG,0.0568
5,CGCGCATC,-0.0161
6,CAAGGGCG,-0.0004
7,ATCTGGGA,-0.212
8,ACGCAGAT,0.162
9,CTCCTTCC,-0.0659
10,ATGAATAA,0.198
11,GCTATGGA,-0.249
12,AGGGAACT,-0.105
13,GACGGACC,-0.175
14,GGGTGACA,-0.00972
15,TCCAGCAA,-0.0655
16,AGTCGGAA,-0.17
17,AGCAGAAT,0.0669
18,CGGTTTAG,-0.141
19,ACAAAGCC,0.146
20,AATGATTG,0.0613
21,AGGTTCGA,0.111
22,AGGATCCG,-0.222
23,ATGTCAAC,0.374
24,TAAACACA,0.379
25,GCGTCGGA,0.0914

row,Sequence,PBM E-score
1,CCTATTCC,-0.123
2,GCTCTAAA,-0.112
3,ATAAAAGA,-0.0789
4,AGATCGGG,-0.317
5,CCGTCCAC,-0.158
6,AGGTTATC,-0.119
7,TCCTGAAA,-0.16
8,ACTGTCGG,-0.208
9,AATGGTGG,-0.232
10,AATGAAAA,0.071
11,ATCACGTC,0.108
12,AGACTGTA,-0.0771
13,GTGGCGCA,-0.0228
14,CTACGATA,0.0842
15,AAAAATGA,0.082
16,CTGTGCAC,0.0227
17,CAACAAGG,0.359
18,AATGGGCA,-0.0715
19,GCCACAGA,-0.0817
20,CAACTATC,-0.214
21,CGAAACCG,-0.097
22,CTCCATCA,-0.11
